Experimental data from ChEMBL document CHEMBL4888484, “Replenishing the malaria drug discovery pipeline: Screening and hit evaluation of the MMV Hit Generation Library 1 (HGL1) against asexual blood stage Plasmodium falciparum ,using a nano luciferase reporter read-out” (2022).
The whole screen tested about 150,000 compounds, of which about 540 (0.36%) showed an effect of 50% or more. Some of the results follow.

The compounds below were run on Plasmodium falciparum (assay: Primary screen in NF54 nanoGlo assay, in single point, at 2uM, 72h; a lower Z score goes with more inhibition). Details: timepoint 72 hour.
Format: functional, Erythrocyte
In the case of `COc1cc(OC)cc(-c2cccc(C(=O)NCC[C@H]3CCCN(C)C3)c2)c1`, the “% Inhibition” value is reported as 2% and the Z score is reported as -0.26. `CCn1ccc(C(=O)N2CC(N(Cc3cccnc3)S(C)(=O)=O)C2)n1` was tested, and the “% Inhibition” value was -4% and the Z score was 0.78. In the case of `COc1ccc(Nc2nc(-c3ccc(F)cc3)c3c(n2)-c2ccccc2OC3)cc1Cl`, the “% Inhibition” value is reported as -5% and the Z score is reported as 0.66. `Cc1c(Cl)cccc1C(=O)Nc1nc(C(C)C)nn1C` was tested, and the “% Inhibition” value was -8% and the Z score was 1.02. In the case of `CCO[C@H]1COC[C@@H]1NC(=O)c1ccc(NCc2sccc2C)cc1`, the “% Inhibition” value is reported as -5% and the Z score is reported as 1.04. With `CCc1oc2ccccc2c1C(=O)N(C)Cc1cnccn1` the “% Inhibition” value was 9% and the Z score was -1.08. For `CCCN(CCC)CC(=O)c1c(N)n(CC)c(=O)[nH]c1=O`, the “% Inhibition” value was -15% and the Z score was 1.32. With `CCOC(=O)[C@@H]1CN(c2nnc(-c3ccccn3)s2)Cc2ccccc21` the “% Inhibition” value was -6% and the Z score was 0.89. `O=C([C@@H]1CCCO1)N1CCN(c2ccnc3cc(F)ccc23)CC1` was tested, and the “% Inhibition” value was -10% and the Z score was 1.08. `COC[C@H](NC(=O)Nc1ccnn1C1CCCCC1)c1ccnn1C` was tested, and the “% Inhibition” value was -5% and the Z score was 0.85. With `CN(CC(=O)NCc1cccs1)C(=O)CC(C)(C)c1ccccc1` the “% Inhibition” value was -9% and the Z score was 1.25. With `Cc1cc([C@@H](O)CCNC(=O)NC2CCOCC2)c(C)o1` the “% Inhibition” value was -7% and the Z score was 1.05. For `O=C(Nc1ccccc1C(=O)N1CCCCC1)[C@H]1CCCN(S(=O)(=O)c2cccs2)C1`, the “% Inhibition” value was 3% and the Z score was -0.58. With `CC(C)=C(F)C(=O)N1CCOCC1C1CCCC1O` (stereo unspecified) the “% Inhibition” value was -10% and the Z score was 0.83. In the case of `CC(C)CCc1nc(N2CCCN(C(=O)CCC3CCCC3)CC2)c2cnn(-c3cccc(Cl)c3)c2n1`, the “% Inhibition” value is reported as -3% and the Z score is reported as 0.43. For `CCc1coc(NC(=O)c2cc(F)ccc2F)n1`, the “% Inhibition” value was 1% and the Z score was -0.21. `CCn1ccnc1C(=O)N1CCc2c(CN3CCCC3)cccc21` was tested, and the “% Inhibition” value was -7% and the Z score was 0.89. In the case of `COc1nc(C)cc(C)c1CNCCC(=O)N1CCc2ccccc2C1`, the “% Inhibition” value is reported as -8% and the Z score is reported as 1.45. For `O=C(Cn1nc(N2CCCCCC2)c2ccccc2c1=O)N1CCN(c2ccc(F)cc2)CC1`, the “% Inhibition” value was -7% and the Z score was 0.98. `COc1ccccc1C1CC1C(=O)N1CCN(CCO)CC1` (stereo unspecified) was tested, and the “% Inhibition” value was -12% and the Z score was 1.03. With `CC(C)CN1CCN(C(=O)c2cnn(-c3ccc(=O)[nH]n3)c2C(F)(F)F)CC1` the “% Inhibition” value was -7% and the Z score was 0.99. For `Cc1nn(C)c(C)c1OCc1ncc(-c2cccs2)o1`, the “% Inhibition” value was -11% and the Z score was 1.99. `CC(C)N(CC(=O)N1CCN(c2ccc(-c3ccc(Cl)cc3Cl)nn2)CC1)C(=O)c1ccccc1F` was tested, and the “% Inhibition” value was -9% and the Z score was 1.05. `CC(=O)c1ccc(CNC(=O)[C@H](O)c2ccccc2)nc1C` was tested, and the “% Inhibition” value was -17% and the Z score was 2.38. With `CCc1cc(N[C@H]2CCCN(CCO)C2=O)nc(C)n1` the “% Inhibition” value was -19% and the Z score was 2.11. `CO[C@H]1CN[C@@H](C(=O)N(Cc2ccccc2)C2CC2)C1` was tested, and the “% Inhibition” value was 1% and the Z score was -0.19. For `CN1C(=O)[C@@H](Cc2ccc(-c3cccc(C(F)(F)F)c3)o2)c2ccccc21`, the “% Inhibition” value was -12% and the Z score was 1.03. `CCn1nc(C)c(CCC(=O)N[C@H]2CCCc3c2[nH]c2c(Cl)cccc32)c1C` was tested, and the “% Inhibition” value was -1% and the Z score was 0.19. In the case of `CCN(Cc1ccoc1)C(=O)c1cc(Cl)c(O)c(OC)c1`, the “% Inhibition” value is reported as -6% and the Z score is reported as 1.05. `COc1ccc([C@@]2(C)NC(=O)N(CC(=O)N3CCc4ccccc43)C2=O)cc1OC` was tested, and the “% Inhibition” value was 1% and the Z score was -0.14. With `Cc1ccc2nc(C(Cl)(Cl)Cl)nc(N)c2c1` the “% Inhibition” value was -9% and the Z score was 1.23. `CCc1ccc([C@@H](NC(=O)CCNC(C)=O)C(C)C)cc1` was tested, and the “% Inhibition” value was 0% and the Z score was -0.05. With `Cc1ccc(NC(=O)Cn2nc3c(N4CCN(c5ccccc5C)CC4)nccn3c2=O)c(Cl)c1` the “% Inhibition” value was -18% and the Z score was 1.72. For `C[C@@H](O)CNC(=O)Nc1nc2n(c1C(=O)OC(C)(C)C)CCOC2`, the “% Inhibition” value was 1% and the Z score was -0.2. In the case of `N#Cc1cnn2cc(CN[C@]3(CO)COc4ccccc4C3)cnc12`, the “% Inhibition” value is reported as -14% and the Z score is reported as 1.37. In the case of `Cc1c(Cl)cccc1S(=O)(=O)N1CC(S(=O)(=O)Cc2ccco2)C1`, the “% Inhibition” value is reported as 0% and the Z score is reported as 0.05. With `CCOc1ccc([C@@H]2c3[nH]c4ccccc4c3CCN2Cc2cc[nH]n2)cc1` the “% Inhibition” value was -7% and the Z score was 0.9. With `CC(C#N)CNCCC(C)c1ccccc1` (stereo unspecified) the “% Inhibition” value was 40% and the Z score was -4.06. In the case of `COc1cccc(-c2ccc(N3CCCN(C(=O)CN(Cc4ccccc4)C(=O)c4ccc(Cl)cc4Cl)CC3)nn2)c1`, the “% Inhibition” value is reported as -9% and the Z score is reported as 1.07. For `COc1cccc(C(=O)N(Cc2ccc(C)cc2)c2cccc(CC(=O)Nc3ccc(F)cc3)c2)c1`, the “% Inhibition” value was -4% and the Z score was 0.77. For `Cc1nccc(CNC(=O)C(C)(C)Oc2cccc(Cl)c2)n1`, the “% Inhibition” value was -7% and the Z score was 0.98. With `Cn1nc(C(=O)N2CCCc3cc(S(=O)(=O)N4CCCC4)ccc32)ccc1=O` the “% Inhibition” value was -4% and the Z score was 0.42. For `CCCCc1nc(C)cc(NCCNC(=O)Nc2cn(C)nn2)n1`, the “% Inhibition” value was 2% and the Z score was -0.3. For `CCc1c(C(=O)N2CCC[C@H]2c2ccc(C(N)=O)s2)[nH]c2ccccc12`, the “% Inhibition” value was -10% and the Z score was 1.37. In the case of `COc1ccc(OC)c(N(CC(=O)N[C@H](C)c2ccccc2)S(C)(=O)=O)c1`, the “% Inhibition” value is reported as 6% and the Z score is reported as -0.95. For `O=C1CCCc2[nH]c(=O)c(C(=O)NCc3ccc(F)c(Cl)c3)cc21`, the “% Inhibition” value was -5% and the Z score was 0.77. `Cc1cc(CNc2[nH]ncc2C(=O)N(C)C)cc(C)c1O` was tested, and the “% Inhibition” value was -11% and the Z score was 1.22. With `Cc1nn(C)c(Cl)c1CN1CCC[C@H]1C(=O)OCc1ccccc1` the “% Inhibition” value was -10% and the Z score was 1.73. For `CC(=O)c1c(C)[nH]c(C(=O)N2c3ccncc3CC[C@@H]2CO)c1C`, the “% Inhibition” value was -15% and the Z score was 1.77. In the case of `O=C(CN1C(=O)COc2cc(Br)ccc21)Nc1cccc2ccccc12`, the “% Inhibition” value is reported as 32% and the Z score is reported as -0.82. `C[C@@H]1NC(C)(C)CC(C)(C)c2ccccc21` was tested, and the “% Inhibition” value was -2% and the Z score was 0.15. In the case of `Cc1cc(N2CC[C@H](O)C2)n2nc(C)cc2n1`, the “% Inhibition” value is reported as -9% and the Z score is reported as 0.99. With `Cc1cc(=O)cc(C(=O)NCc2ccc3nonc3c2)[nH]1` the “% Inhibition” value was -3% and the Z score was 0.55. In the case of `CS(=O)(=O)CCC(=O)N(CCO)Cc1cccs1`, the “% Inhibition” value is reported as -4% and the Z score is reported as 0.68. With `CCc1nccn1C[C@H](C)NCc1ccc2nsnc2c1` the “% Inhibition” value was 3% and the Z score was -0.48. `NCCNc1nc(-c2ccc(Br)cc2)nnc1-c1ccccc1` was tested, and the “% Inhibition” value was -16% and the Z score was 1.89. For `Cn1c(CCNC(=O)C2(C)COC2)nc2cc(F)ccc21`, the “% Inhibition” value was 6% and the Z score was -1.35. `O=C(CN1CCC2(CC1)C[C@@H]2C(=O)N1CCCCC1)Nc1nccs1` was tested, and the “% Inhibition” value was -14% and the Z score was 2.59. In the case of `C[C@H]1Cc2ccccc2C(CCc2ccccc2)=N1`, the “% Inhibition” value is reported as -4% and the Z score is reported as 0.38. For `Cc1cc(C)c(C(=O)NC[C@@]2(c3cnn(C)c3)CCCO2)[nH]1`, the “% Inhibition” value was -4% and the Z score was 0.37. `Cc1cc(NC(=O)N(C)CC2(CO)CC2)n(-c2cc(C)c3ccccc3n2)n1` was tested, and the “% Inhibition” value was -1% and the Z score was 0.09. With `Cc1c(NC(=O)CCn2nnnc2C)cnn1C` the “% Inhibition” value was 1% and the Z score was -0.24. `Cc1cc(-c2ccc(C)c(S(=O)(=O)CCC(=O)NCc3ccc(Cl)cc3)c2)on1` was tested, and the “% Inhibition” value was -2% and the Z score was 0.27. For `CCn1cc(C#N)c(=O)n(CC(=O)N2CCN(S(=O)(=O)c3ccc4c(c3)CCCC4)CC2)c1=O`, the “% Inhibition” value was 6% and the Z score was -1.14. `O=S(=O)(c1cccnc1)N1CCN(S(=O)(=O)c2cccs2)CC1` was tested, and the “% Inhibition” value was 8% and the Z score was -1.06. With `CN1CCc2[nH]nc(C(=O)NC(c3cccs3)[C@H]3C[C@@H](O)C3)c2C1` (stereo partly specified) the “% Inhibition” value was -3% and the Z score was 0.48. With `CN1CCNC(=O)C[C@@H]2CN(C(=O)c3ccccc3)C[C@@H]2n2cc(nn2)Cn2cccc(c2=O)C1=O` the “% Inhibition” value was -10% and the Z score was 1.98. With `Cc1cc(NC(=O)Nc2cc(C)on2)no1` the “% Inhibition” value was -1% and the Z score was 0.17. `CCOc1ccccc1NC(=O)[C@H]1CCCN(c2nc3c(s2)c(C)nn3-c2ccc(C)cc2)C1` was tested, and the “% Inhibition” value was -7% and the Z score was 1.31. With `N#Cc1ccc(NC2CCC3(CC2)OCCO3)cc1` the “% Inhibition” value was -2% and the Z score was 0.37. In the case of `Cc1ncsc1CN(C)c1c(F)cncc1Cl`, the “% Inhibition” value is reported as -14% and the Z score is reported as 1.72. For `COc1ccc(-c2nc(NCCN3CCCCC3)nc3nn(Cc4ccccc4)c(N)c23)c(F)c1`, the “% Inhibition” value was -4% and the Z score was 0.68. `COCCNC(=O)[C@H]1C[C@H](Oc2ccccc2)CN1S(=O)(=O)c1ccc(OC)cc1` was tested, and the “% Inhibition” value was -14% and the Z score was 2.75. For `O=C1CN(Cc2ccc(CN3CCCCC3)s2)C[C@H](O)CN1Cc1cccnc1`, the “% Inhibition” value was -19% and the Z score was 2.17. In the case of `Cc1ccc(-c2nc(NC[C@H]3CCCO3)ncc2C(=O)O)cc1`, the “% Inhibition” value is reported as -6% and the Z score is reported as 0.8. With `C[C@H]1CC(NC(=O)c2ccns2)=NN1Cc1ccccc1` the “% Inhibition” value was -13% and the Z score was 2.42. For `CC(C)c1nsc(N[C@H]2CCCN(C(N)=O)C2)n1`, the “% Inhibition” value was -13% and the Z score was 1.52. With `O=C(c1ccc[nH]1)N1CC2CCC1C1CN(Cc3ccccc3)CC21` (stereo unspecified) the “% Inhibition” value was 4% and the Z score was -0.54. With `O=C1N(Cc2ccc(F)c(F)c2)CCC[C@@]12CCN(C1CCC1)C2` the “% Inhibition” value was 7% and the Z score was -0.65. For `CNC(=O)C(C)(C)CNc1ccncc1Cl`, the “% Inhibition” value was 1% and the Z score was -0.11. In the case of `O=C(Cc1cccnc1)NC1CCN(c2nnc3ccc(Cl)cn23)CC1`, the “% Inhibition” value is reported as 28% and the Z score is reported as -3.18. With `CC1CCc2ccccc2N1CCC(=O)N1CCCC(O)C1` (stereo unspecified) the “% Inhibition” value was -12% and the Z score was 1.27. For `C[C@H](O)c1onc(-c2cccs2)c1C(=O)N1CCC(Cc2ccccc2)CC1`, the “% Inhibition” value was 3% and the Z score was -0.41.
